# Reference: PubChem BioAssay AID686971 (National Center for Advancing Translational Sciences (NCATS), 2013)
# About 7,500 (2.1%) of roughly 360,000 compounds were called active. The inconclusive results got no clear call from the source; some entries with a clear call stand among them for comparison. Calls follow the shape of the dose curve; as a rule, active = well fitted cell-killing curve with a large enough effect; inconclusive = small, poorly fitted or top-dose-only effect, or effect the other way, or another doubt; inactive = no such curve, though single readings can be large or run the other way. Potencies of inconclusive entries are left out as doubtful fits.
# Test: qHTS for induction of synthetic lethality in tumor cells producing 2HG: qHTS for the HT-1080-IDH1KD cell line;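 as to activity, negative = toxicity: 0% = DMSO wells and -100% = cell-free medium wells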
# Settings: HT-1080 IDH1 knockdown viability, ATP luminescence, 48 h; activity, negative = toxicity: at 46.1 µM (top of the series) unless noted
# Outline: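 Viability of IDH1-knockdown HT-1080 fibrosarcoma cells was assessed by CellTiter-Glo after 48 h at 37 °C with titrated compound; concentration-effect curves were classified by fit quality and response size.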
# Potency is read from the fitted curve at half-maximal effect; tags tell the direction and shape of the fitted curve.
Structure (SMILES),"activity, negative = toxicity",Potency
CC1=C(C(=O)N2CCOCC2)CC(CC(=O)NC2CCCC2)C(=O)N1CCCN1CCCC1=O (stereo not given),inactive: -5.77%,
OCc1cc(C(O)CNCCCCCCOCCCCc2ccccc2)ccc1O (stereo not given),,"inconclusive [cytotoxic, single point]"
COc1cc(/C=N/NC(=O)C(=O)/C=C2\NC(C)(C)Cc3ccccc32)ccc1O,,"inconclusive [cytotoxic, single point]"
CCN1CCN(c2nc(Nc3ccc(C)c(C)c3)nc(N)c2[N+](=O)[O-])CC1,,"inconclusive [cytotoxic, partial curve]"
CCN1C(=O)[C@H]2[C@@H](c3ccc(SC4CCCCC4)c(OC)c3)N3CCCC[C@@]3(C(=O)OC)[C@H]2C1=O,,"inconclusive [cytotoxic, single point]"
COc1ccc(F)cc1-c1cc(NC=O)c2ncc(-c3cccc(C(F)(F)F)c3)n2c1,,active: 5.17 µM
O=C(NCc1nc(-c2ccc(Cl)cc2)no1)c1ccc2c(c1)OCO2,inactive: -10.4%,
COC(=O)COc1cccc2c(=O)n(CC(=O)NCc3ccc(F)cc3)ccc12,,active: 3.66 µM
Cc1cccc(N2CCN(S(=O)(=O)c3cc(-c4cc(C)no4)ccc3C)CC2C)c1 (stereo not given),,active: 4.61 µM
CC(C)CC(=O)N1CCN(Cc2ccc3c(c2)OCO3)CC1,inactive: 9.56%,
O=C(c1cc(-c2ccc(O)cc2)on1)N1CCCC1,inactive: -18.9%,
CCCOc1ccccc1C1CC(=O)NC(C)=C1C(=O)OCC(C)C (stereo not given),,"inconclusive [cytotoxic, single point]"
Cc1noc(/C=C/N(C)C)c1S(=O)(=O)NC1CCCCC1,,"inconclusive [cytotoxic, single point]"
COc1ccc(Cl)cc1-c1cc(C(=O)NCc2ccc(F)cc2)[nH]n1,,"inconclusive [cytotoxic, single point]"
CC(=O)OC(COc1cccc(C)c1)Cn1cnc2ccccc21 (stereo not given),inactive: -7.19%,
CC(C)(C)c1cnnn1-c1ccc(/C=N/Nc2ccc([N+](=O)[O-])cc2)cc1,inactive: -16.9%,
C=CCn1c(SCC(=O)Nc2cccc(S(N)(=O)=O)c2)nc2sc(C)c(C)c2c1=O,,"inconclusive [cytotoxic, partial curve]"
Cc1nc(N)nc(N(C)c2ccccc2)c1Br,,"inconclusive [cytotoxic, partial curve]"
CC(C)(C)NCC(O)COc1ccccc1C(C)(C)C (stereo not given),,"inconclusive [cytotoxic, single point]"
CCC(=O)N1CCN(c2ccc(Cl)cc2NC(=O)c2ccc([N+](=O)[O-])o2)CC1,,"inconclusive [cytotoxic, single point]"
COc1ccc(S(=O)(=O)N2CCc3cc(OC)c(OC)cc3C2)cc1,inactive: -4.72%,
CSCCC(NC(=O)COc1ccccc1)C(=O)N1CCN(c2cccc(C(F)(F)F)c2)CC1 (stereo not given),,"inconclusive [cytotoxic, partial curve]"
COc1cccc(/C=N/n2c(C)nc3ccccc32)c1OC,inactive: 0.657%,

Structure (SMILES),"activity, negative = toxicity",Potency
CCCN(CC(=O)Nc1ccccc1C)C(=O)c1cccc(S(=O)(=O)N2CCc3ccccc3C2)c1,,"inconclusive [cytotoxic, partial curve]"
CCOC(=O)c1sc(-c2ccccc2)cc1NC(=O)Nc1ccccc1,,"inconclusive [cytotoxic, single point]"
CCc1nnc(NC(=O)c2ccc(S(=O)(=O)N(C)c3ccccc3)cc2)o1,,"inconclusive [cytotoxic, single point]"
Cc1cc(C)nc(Nc2ncc(O)n2-c2ccc(C)c(C)c2)n1,,"inconclusive [rising, partial curve, poor fit]"
Cc1c(/C=N/NC(=O)c2cccnc2)c2ccccc2n1Cc1ccccc1,,"inconclusive [cytotoxic, single point]"
O=[N+]([O-])c1cc(-c2ccccc2)cc([N+](=O)[O-])c1O,,"inconclusive [cytotoxic, single point]"
O=C1C=CC2(C=C1)O[C@H](Cc1ccccc1)[C@@H](Cc1ccccc1)O2,,active: 1.16 µM
Cc1cc(C(=O)NN=C2C3CC4CC(C3)CC2C4)c2ccccc2n1,,"inconclusive [cytotoxic, single point]"
Nc1c(C(=O)Nc2ccccc2)sc2nc3c(c(-c4ccco4)c12)CCCC3,,"inconclusive [cytotoxic, single point]"
CCC(CC)N1CCN(CC2CC=CCC2)CC1 (stereo not given),inconclusive: 30.6%,
CCN(CC)c1ccc(C(=O)NNC(=O)CCl)cc1,,"inconclusive [cytotoxic, single point]"
O=C(NN1C(=O)/C(=C/c2cccnc2)SC1=S)C(c1ccccc1)c1ccccc1,,"inconclusive [cytotoxic, single point]"
Cc1cccc(OCc2nnc(SCC(=O)N(C(C)C)C(C)C)n2Cc2ccco2)c1C,,"inconclusive [cytotoxic, single point]"
CCOC(=O)N(C)c1c(CC)nc2c(OCc3cccc(Cl)c3)cccn12,inactive: -27.1%,
Cc1cc(NC(=O)c2cc(C(C)(C)C)oc2C)no1,inactive: 1.86%,
C(=C\c1ccccc1)/CN1CCN(C(c2ccccc2)c2nnnn2C2CCCC2)CC1 (stereo not given),,"inconclusive [cytotoxic, single point]"
O=S1(=O)N[C@H](Cc2ccccc2)COc2cc(N3CCC[C@@H]3CO)ccc21,,active: 23.1 µM
CCN(CC)CCNC(=O)c1c(C)n(-c2ccccc2)c2cc(Br)c(OC)cc12,,active: 16.4 µM
CCN1CCN(C2=C(NS(=O)(=O)c3ccc(C)cc3)C(=O)c3ccccc3C2=O)CC1,,"inconclusive [cytotoxic, single point]"
Cc1onc(-c2ccccc2Cl)c1C(=O)Oc1cccc2cccnc12,,active: 23.1 µM
O=c1[nH]c(-c2ccccn2)nc2ccccc12,,"inconclusive [cytotoxic, single point]"
Nc1ccccc1SCC(=O)Nc1ccc(N2CCOCC2)cc1,,"inconclusive [cytotoxic, partial curve]"
